Data from patent publication US8268795B2 (priority 2005, dated 2012).
Counter-ions that a name gives are not always drawn.

Tested on: small diameter cerebral arteries constricted by 60 mmol/L K+
Test: tissue or blood
Format: cell-based, rabbit

Structure (SMILES): COc1ccc([C@@H]2Sc3ccccc3N(CCN(C)C)C(=O)[C@@H]2OC(C)=O)cc1 (relative stereo) [diltiazem, benzothiazepin-4(5H)-one, 3-(acetyloxy)-5-[2-(dimethylamino)ethyl]-2,3-dihydro-2-(4-methoxyphenyl)-,(+)-cis-,monohydrochloride]
- K+-induced constrictions that could not be reversed: approximately 20%
- reversal of constrictions induced by 60 mmol/L K+: could not fully reverse
- IC50 (Oryctolagus cuniculus, 72 h, read-out: IC50 value of diltiazem for vasodilation): ~1000 nM
